Hit rate of the full screen: of about 46,000 compounds, about 60 (0.1%) were called active. Roughly 3% stayed inconclusive and do not appear here. Calls come from the whole dose curve; as a rule, active = well fitted inhibition curve with a large enough effect; inconclusive = small, poorly fitted or top-dose-only effect; inactive = no such curve, though single readings can be large or run the other way. Some of the results follow.

This experiment is described as follows: Primary qHTS assay for Inhibitors of ovarian cancer metastasis using an organotypic tumor microenvironment (TME) model.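 For activity change, negative = inhibition: plate controls were DMSO wells for no effect and tomatine positive control wells for full effect.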 Note: nearly all actives have a fitted effect of over 65% in size. The note with it: SKOV3ip1-GFP adhesion/invasion on 3D omental model, fluorescence; series mostly up to 45.8 µM; activity change, negative = inhibition: at the top concentration. A digest of the protocol:
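qHTS, 4-pt dose (0.36-46 umol/L); SKOV3ip1-GFP, 1,200 cells/well, no FBS; primary omental fibroblast/mesothelial co-culture 48 h pre-grown; 2 h RT + 16 h 37 C; PBS wash, 4% PFA; GFP count 488/509 nm.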
A general note: In qHTS, concentration-response curves come from the screen itself.
As for `CC1=NN=C(c2ccc(N)cc2)c2cc3c(cc2C1)OCO3`, the “activity change, negative = inhibition” value is inactive: 6.68%.
In the case of `Cc1cccc(Cn2cccc(C(=O)Nc3ccc4c(c3)OCCO4)c2=O)c1`, the “activity change, negative = inhibition” value is inactive: -5.99%.
`CCN(CC)CCSc1nc2ccccc2c(=O)n1-c1ccc(Cl)cc1`: the “activity change, negative = inhibition” value is inactive: -0.313%.
On to `COc1cccc(NC(=O)Cn2cc(C(=O)c3ccccc3)c3ccccc32)c1`, for which the compound was called inactive.
Consider `CCCOc1ccc(C2SCC(=O)Nc3c2c(C)nn3-c2cccc(C)c2)cc1OC` (stereo unspecified), for which the outcome was inactive.
Regarding `COc1ccc(C(CN(C)C)C2(O)CCCCC2)cc1` (stereo unspecified), the “activity change, negative = inhibition” value was inactive: 6.83%.
Same read-out and setting: as for `COc1ccc(C(=O)Nc2ccc(Cl)cc2C(=O)c2ccccc2)c(OC)c1`, the figure is inactive: -3.62%.
In the case of `Cc1ccccc1CN1C(=O)CN=C(c2ccccc2)c2cc(Cl)ccc21`, the compound was called inactive.
On to `Cc1ccc(OCC(=O)N2CCN(CCc3ccncc3)CC2)cc1C`, for which the “activity change, negative = inhibition” value is inactive: -3.67%.
For the compound `Cc1ccc(-n2c(/C=C/c3cc(Br)cs3)nc3ccccc3c2=O)cc1`, the result was inactive.
Consider `O=C(Oc1ccc([N+](=O)[O-])cc1)N1CCN(Cc2cccc(Oc3ccccc3)c2)CC1`, for which the “activity change, negative = inhibition” value was inactive: -27%.
Regarding `O=c1c2ccccc2nc(/C=C\c2ccccc2F)n1-c1ccc(O)cc1`, the “activity change, negative = inhibition” value is inactive: 3.52%.
Take `CCCCc1ccc(NC(=O)c2cccn(Cc3ccc(Cl)cc3)c2=O)cc1`: the result was inactive.
Turning to `Cc1c(C(c2ccc(Cl)cc2Cl)c2c(O)c3ccccc3oc2=O)c(=O)n(-c2ccccc2)n1C` (stereo unspecified), the “activity change, negative = inhibition” value is inactive: 0.649%.
Regarding `Cc1cc(-n2c(/C=C/c3ccc(Br)s3)nc3ccccc3c2=O)ccc1Br`, the compound was classed as inactive.
In the case of `Cc1cc(-n2c(/C=C/c3cccs3)nc3ccccc3c2=O)ccc1Br`, the “activity change, negative = inhibition” value was inactive: 0.957%.
On the same count and under the same terms, next, `O=c1c2ccccc2nc(/C=C/c2cccc3ccccc23)n1-c1ccccc1Cl`: inactive: -3.16%; `COc1ccc(Cl)cc1NC(=O)CN1C(=O)CN=C(c2ccccc2)c2cc(Cl)ccc21`: inactive: -17.8%; `Cc1ccc(-n2c(/C=C/c3ccc(Br)s3)nc3ccccc3c2=O)cc1`: inactive: 20%.
On the same count and under the same terms, as for `COc1ccc(C(=O)c2c(C)n(CCN3CCOCC3)c3ccccc23)cc1`, the figure is inactive: -2.19%.
As to `CCc1ccc(NC(=O)c2cccn(Cc3cccc([N+](=O)[O-])c3)c2=O)cc1`, the outcome was inactive.
Take `Cc1[nH]nc2ccc(-c3cncc(OC[C@@H](N)Cc4c[nH]c5ccccc45)c3)cc12`: the “activity change, negative = inhibition” value was inactive: -4.94%.
For `CO[C@H]1CCC(O[C@H]2C[C@H]([C@]3(C)CC[C@]4(C[C@H](O)[C@@H](C)[C@@H]([C@@H](C)C=C(C)C(=O)[C@H](C)C[C@H](C)C(=O)O)O4)O3)O[C@]3(O[C@@H]([C@H]4O[C@@](O)(CO)[C@H](C)C[C@H]4C)C[C@H]3C)[C@H]2C)O[C@H]1C` (stereo partly specified), the “activity change, negative = inhibition” value was inactive: -19.5%.
In the case of `CNCC(O)c1ccc(O)cc1` (stereo unspecified), the “activity change, negative = inhibition” value was inactive: -0.226%.
Same read-out and setting: next, `N#Cc1cc2c(nc1SCC(=O)Nc1ccc(OC(F)(F)F)cc1)C1CCN2CC1`: inactive: -16.5%; `O=C(COc1ccccc1Cl)N1CCN(CCc2ccncc2)CC1`: inactive: 2.66%.
